Values joined by “and” are separate entries in the source; they are usually repeats but may differ in a detail not shown here. Identical values can stand only once. Among all 150,000 compounds or so, about 6,500 (4.3%) were called active. Inconclusive results, whose numbers are uncertain, are shown with a selection of clear calls. Calls follow the shape of the dose curve; as a rule, active = well fitted inhibition curve with a large enough effect (not every such curve was filed as active); inconclusive = small, poorly fitted or top-dose-only effect, or another doubt; inactive = no such curve, though single readings can be large or run the other way. No potency is given beside an inconclusive call; the fits are too rough.
Target: 15-hydroxyprostaglandin dehydrogenase [NAD(+)] (Homo sapiens) (UniProt P15428)
Assay: qHTS Assay for Inhibitors of HPGD (15-Hydroxyprostaglandin Dehydrogenase)
Settings: purified HPGD, NADH fluorescence kinetic, PGE2 substrate; activity change, negative = inhibition: active compounds read low
How it was run: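 NADH formation kinetics: reaction with 30 uM PGE2 and 1 mM NAD+ (final), 20 nM enzyme, Tris-HCl pH 8 with Tween 20, after 15 min compound preincubation at room temperature. Fluorescence change, last versus first of five reads.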
% is scaled to controls: 0 for no effect and ±100 for the full control effect; potency is read from the fitted curve at half-maximal effect; tags tell the direction and shape of the fitted curve.

UniProt P15428, sequence (P15428 whole entry, looked up): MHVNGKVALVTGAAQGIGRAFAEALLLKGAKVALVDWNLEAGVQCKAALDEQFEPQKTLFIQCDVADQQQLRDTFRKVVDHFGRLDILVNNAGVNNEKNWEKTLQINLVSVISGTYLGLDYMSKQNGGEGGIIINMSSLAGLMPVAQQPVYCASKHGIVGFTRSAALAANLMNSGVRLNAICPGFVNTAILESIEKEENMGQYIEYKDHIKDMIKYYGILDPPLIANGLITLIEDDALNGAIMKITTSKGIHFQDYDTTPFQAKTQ

SMILES | Potency | activity change, negative = inhibition
Cc1occc1C(=O)NCc1ccccc1F | inconclusive [inhibitor, single point] | –
O=C(/C=C/c1cccc2ccccc12)NCCC1=CCCCC1 | inconclusive [inhibitor, partial curve] | –
CC(C)(C)NC(=O)CSc1ncnc2c1nnn2Cc1ccccc1Cl | active: 31.6 µM | –
O=C(Cn1[nH]c(=O)c2ccccc2c1=O)OCC(=O)N1CCCc2ccccc21 | – | inactive: -10.8%
Cc1ccc(NC(=O)CSc2nnc(-c3cccnc3)n2-c2ccc(C)cc2)cc1 | – | inactive: -13.4%
Cc1cccc(-n2c(-c3csc(C(C)C)c3)n[nH]c2=S)c1 | inconclusive [inhibitor, partial curve] | –
CC(C)C[C@H](NC(=O)OC(C)(C)C)C(=O)N/N=C/C1=Cc2ccccc2OC1C (stereo partly drawn) | inconclusive [inhibitor, partial curve] | –
O=C(N/C(=C/c1cccc([N+](=O)[O-])c1)C(=O)N1CCCCC1)c1cccs1 | – | inactive: -5.48%
CC1(C)Cc2c(sc3[nH]c(=S)n(Cc4ccco4)c(=O)c23)CO1 | active: 22.4 µM | –
Clc1ccccc1C(Nc1cnccn1)Nc1cnccn1 | inconclusive [inhibitor, partial curve] | –
Cc1ccc(OCC(=O)N2CCN(c3nnc(-c4ccc(C)cc4)c4ccccc34)CC2)cc1 | – | inactive: -15.7%
Cc1cc(C)cc(Oc2cc(NC(=O)c3cn(C)nc3C)cc([N+](=O)[O-])c2)c1 | – | inactive: -0.867%
COCCCNc1oc(-c2ccccc2F)nc1C#N | inconclusive [inhibitor, partial curve] | –
O=C(O)CNCCc1ccccc1 | – | inactive: -5.34%
O=C(NCCc1c[nH]c2ccccc12)[C@@H]1C[C@H]1[C@@H](NP(=O)(c1ccccc1)c1ccccc1)c1ccccc1 | – | inactive: -5.41% and inactive: -27.9%
Cc1ccc2nc(SCC(=O)NCc3ccco3)c(C#N)cc2c1 | active: 7.94 µM | –
C=CCNC(=O)c1ccc2nc(-c3ccccc3)c(-c3ccccc3)nc2c1 | inconclusive [inhibitor, partial curve] | –
O=C(/C=C/c1ccc2c(c1)OCO2)Nc1cc(S(=O)(=O)N2CCOCC2)ccc1N1CCOCC1 | inconclusive [inhibitor, partial curve] | –
CCCCn1nc(C(=O)Oc2ccc3c(C)cc(=O)oc3c2)c2ccccc2c1=O | inconclusive [inhibitor, partial curve] | –
COc1ccc(NS(=O)(=O)c2ccc(S(=O)(=O)N3CCCC3)cc2)cc1Cl | – | inactive: -8.19%
C=CCNc1ncnc2c1[nH]c1ccc(C)cc12 | inconclusive [inhibitor, partial curve] | –
COc1cc2ccccc2cc1C(=O)Nc1ccc(S(=O)(=O)Nc2cc(C)on2)cc1 | active: 20 µM | –
O=C(NCC1CCCO1)C1CC1(c1ccccc1)c1ccccc1 (stereo not drawn) | – | inactive: -1.54%
C/C(=N\NC(=S)NC(C)C)c1ccc(Cl)s1 | inconclusive [inhibitor, partial curve] | –

SMILES | Potency | activity change, negative = inhibition
CCn1nc(C)c(NC(=O)CCSc2nc(-c3ccco3)cc(C(F)(F)F)n2)c1C | inconclusive [inhibitor, single point] | –
O=C(Nc1nnc(C2CCCCC2)s1)c1ccc(Br)s1 | – | inactive: 2.92%
O=C(NCCc1csc(-c2cccnc2)n1)c1cccs1 | inconclusive [inhibitor, single point] | –
CCOc1ccc(C2CC(c3ccccc3C)n3ncnc3N2)cc1 (stereo not drawn) | – | inactive: -13.1%
C(=C\c1cc(/C=C/c2ccccc2)ncn1)/c1ccccc1 | inconclusive [inhibitor, partial curve] | –
CCOc1ccc2nc(SCC(=O)NCc3ccco3)sc2c1 | active: 22.4 µM | –
CC1=C(C#N)c2nc(N)c(C#N)c(C)c2/C1=C\c1ccc(C)cc1 | inconclusive [inhibitor, partial curve] | –
CC(NC(=O)CSCc1ccccc1Br)c1ccccc1 (stereo not drawn) | inconclusive [inhibitor, single point] | –
COc1ccc2c(c1)C(C)=CC(C)(C)N2C(=O)Nc1ccccc1 | inconclusive [inhibitor, partial curve, poor fit] | –
Cc1[nH]n(-c2ncc(-c3ccccc3)s2)c(=O)c1C(c1ccc(Br)cc1)C(C#N)C#N (stereo not drawn) | active: 10 µM | –
CCC1(C)Nc2ccccc2C(=O)N1O (stereo not drawn) | active: 25.1 µM | –
CCOc1ccc2nc(NS(C)(=O)=O)sc2c1 | active: 28.2 µM | –
COC(=O)CCC(=O)Nc1cc(S(=O)(=O)Nc2ccc(Cl)cc2)ccc1N1CCOCC1 | inconclusive [inhibitor, partial curve] | –
CCC1=NN2C(=N)/C(=C/c3c(C)nn(-c4ccccc4)c3Cl)C(=O)N=C2S1 | – | inactive: -19%
Cc1nc(N2CCOCC2)c2nc(-c3ccccc3)n(C(C)CN(C)C)c2n1 (stereo not drawn) | inconclusive [inhibitor, partial curve] | –
C[C@H](NS(=O)(=O)c1ccc(Cl)c(Cl)c1)C(=O)OCc1cc(=O)n2cc(Br)ccc2n1 | – | inactive: -15.2%
CCOCCCNC(=O)c1cc2c(=O)n3cccc(C)c3nc2n1C | inconclusive [inhibitor, partial curve] | –
CC(=O)c1cc2c(cc1O)OC(C)(C)C=C2 | active: 25.1 µM | –
CCOC(=O)c1sc(C)c(C(=O)NCCCN2CCOCC2)c1N | inconclusive [inhibitor, partial curve] | –
COCCNC(=O)CCCCCN1C(=O)CCC1=O | active: 15.8 µM | –
O=C(NNC(=O)c1cc2c(s1)CCCC2)c1ccccc1 | – | inactive: -17.6%
Nc1nc(-c2ccccc2)[nH]c(=O)c1N | inconclusive [inhibitor, partial curve] | –
CC(C)Oc1ccc(C(=O)CCN2CCCCC2)cc1 | – | inactive: -11%
CC(C)(C)OC(=O)NCCc1nnc(SCc2ccc(Cl)cc2Cl)o1 | inconclusive [inhibitor, partial curve] | –
